# Assay results taken from article PMC12136788.
# The other results are listed elsewhere or left out.
# T1: UNK ZnF1-6 (called full-length) (human, UniProt Q9C0B0 30-357)
# T1 sequence: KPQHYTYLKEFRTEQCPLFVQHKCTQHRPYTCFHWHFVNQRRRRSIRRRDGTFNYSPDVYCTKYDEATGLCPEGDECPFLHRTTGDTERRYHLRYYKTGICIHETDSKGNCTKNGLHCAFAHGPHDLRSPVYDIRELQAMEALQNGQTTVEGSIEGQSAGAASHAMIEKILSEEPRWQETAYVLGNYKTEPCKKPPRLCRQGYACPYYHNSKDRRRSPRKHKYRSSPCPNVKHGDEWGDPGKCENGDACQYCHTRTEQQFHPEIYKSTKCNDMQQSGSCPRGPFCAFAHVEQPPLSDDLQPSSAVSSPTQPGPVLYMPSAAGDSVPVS
# B1: chr13:106491261:106491362:-|3pUTR|ENSG00000125266|msi1|FALSE|unique (ssRNA)
# RNA: GGGAGUUCUACAGUCCGACGAUCACAAUAAUGAGAGCAAAUGCAAAAAUAACCAAGUCCUCCGAAGGCAUCUCACGGAACCGUAGACUAGGAAGUACGAGCCCCACAGAGCAGGAAGCCGAUGUGACUGCAUCAUAUAUUUAACAACAGAGGAUUGAGCAUCA
# B2: chr4:56809860:56810169:-|three_prime_utr|ENSG00000128040|control|control|control (ssRNA)
# RNA: GGGAGUUCUACAGUCCGACGAUCCCCUGCUGAUGGAGCAGUUUACAGAAAAGAAGAUGGAGAGACCACCUUCACUGGCAGACUAGAUAAAUUGCAUUUCCCCUUUUUCUCUUUUCCUGUGUUUCUUUACAUGAGAUUUGUUAACAACAGAGGAUUGAGCAUCA
# B3: ENSG00000143401:stop:overlap|stop_codon|ENSG00000143401|stop_codon|NA|stop_codon (ssRNA)
# RNA: GGGAGUUCUACAGUCCGACGAUCGUCUUCGAGGGGAGAAGAGGAAACGAGAUGCUGAAGACGAUGGAGAGGAAGAAGAUGACUAGAUCAUUCUAAGACCAGAUUCUCUAAUGUUUCUGGGUGUGCAAUAGAGUGAUCACAUCUCAACAGAGGAUUGAGCAUCA
# B4: chr11:613205:613595:-|three_prime_utr|ENSG00000185507|control|control|control (ssRNA)
# RNA: GGGAGUUCUACAGUCCGACGAUCCUGCACGUUCCUAUACGGCCCCCCAGACCCAGCUGUCCGGGCCACAGACCCCCAGCAGGUAGCAUUCCCCAGCCCUGCCGAGCUCCCGGACCAGAAGCAGCUGCGCUACACGGAGGAACUCAACAGAGGAUUGAGCAUCA
# B5: chr3:120395571:120395798:-|3pUTR|ENSG00000163430|msi1|total|mutant (ssRNA)
# RNA: GGGAGUUCUACAGUCCGACGAUCUGGUUCUGAUCAUUGGUCCAGAGGGGAGACCGGUUCCUGUGAUUUUUCCUUCUUCUCUACCGAAUAAAUGAAAUCUUGUUACCCGAACAAGAAAUGUCAGAUGGCCAAAAACAAGAUGACCAACAGAGGAUUGAGCAUCA
# B6: chr16:88813726:88813828:-|3pUTR|ENSG00000141012|unk|FALSE|unique (ssRNA)
# RNA: GGGAGUUCUACAGUCCGACGAUCUCCCUGGACGCUAAUUAUGAGGGAGGCGUGUAGCUUCUUAUCAUUGUAACUAUGUUAUUUAGAAAUAAAACGGGAGGCAGGUUUGCCUAAUUCCCAGCUUGAUUUUUCUCUUGGCUGAGUCAACAGAGGAUUGAGCAUCA
# B7: chr5:122065063:122065164:-|3pUTR|ENSG00000113083|msi1|FALSE|unique (ssRNA)
# RNA: GGGAGUUCUACAGUCCGACGAUCUCAACUGGCGGAUAUAGCGGUACAUAUGAUCCUUAGCCACCAGGGCACAAGCUUACCAGUAGACAAUACAGACAGAGCUUUUGUUGAGCUGUAACUGAGCUAUGGAAUAGCUUCUUUGAUCAACAGAGGAUUGAGCAUCA
# B8: chr6:21593967:21594078:+|5pUTR|ENSG00000124766|unk|FALSE|bound_elsewhere (ssRNA)
# RNA: GGGAGUUCUACAGUCCGACGAUCUUAGUGCCGAUUCCGCCCACAGAGAGUCCUGGAGCCACAGUCUUUUUUGCUUUGCAUUGUAGGAGAGGGACUAAGUGCUAGAGACUAUGUCGCUUUCCUGAGCUACCGAGAGCGCUCGUGCAACAGAGGAUUGAGCAUCA
# B9: chr10:16593140:16593241:-|3pUTR|ENSG00000148484|unk|total|mutant (ssRNA)
# RNA: GGGAGUUCUACAGUCCGACGAUCUUAUUUUUCUUUUCACUCUCUUUCUAAUGCUUCCCACCUUACCUUUCCGAUUCUUUUGCCCGGUGGGAGAUUGUUAUAAGGUCUUUAAACCAUUUCCAUUUGUUUCUUUAACAUUACCAACAACAGAGGAUUGAGCAUCA
# B10: chr4:175634378:175634624:-|3pUTR|ENSG00000150625|msi1|total|mutant (ssRNA)
# RNA: GGGAGUUCUACAGUCCGACGAUCUUUCUUAUGUUUUGAAAAGAAAACCGCUUUUUAUACUUUUCCGUUUUGAUUUCGGUAACCCGUUUAACUACAGGUAACCUUCAAAGGGACCAUUGUACAUUAUGAACAACCGACCGAGAUCAACAGAGGAUUGAGCAUCA
# B11: chr2:85327303:85327429:-|CDS|ENSG00000152291|msi1|FALSE|bound_elsewhere (ssRNA)
# RNA: GGGAGUUCUACAGUCCGACGAUCACCCAAAAAGGCAGCACUAGCAAGUCGGGUUCGGAGGCGCAGACCACAAAAGACAGCACUAGUAAGUCGCAUCCGGAGCUGCAGACUCCAAAAGACAGCACUGGCAAAUCGGGUGCGGAGCAACAGAGGAUUGAGCAUCA
# B12: chr10:30313878:30313980:-|CDS|ENSG00000107951|unk|FALSE|unique (ssRNA)
# RNA: GGGAGUUCUACAGUCCGACGAUCUGUUUUUAUAUUUAAGCCCUUCAUGUACUUACUCAUUUUUUCUUCUGUGUAAUAAUCUAUAGGGAAGGGAGCAAAACAAACCUGAUUCUUCUCCUCUGUACAUUCAGAAUCCAUUUGAAACAACAGAGGAUUGAGCAUCA
# B13: chr1:77949188:77949289:-|CDS|ENSG00000162613|unk|total|mutant (ssRNA)
# RNA: GGGAGUUCUACAGUCCGACGAUCUUCAAAGGUCAGGCAGUUCCUGCUCCGACUGGGGCUCCUCCAGGUGGUCAGCCAGAUUACCGUGCAGCCUGGGCUGAGUAUUACCGACAACAAGCAGCCUAUUAUGCCCAGACAAGUCCCCAACAGAGGAUUGAGCAUCA
# B14: chr10:113876644:113876745:+|CDS|ENSG00000196865|msi1|FALSE|bound_elsewhere (ssRNA)
# RNA: GGGAGUUCUACAGUCCGACGAUCGGUUAAUGAUGCAGAUGCCAGCCUUUGGCAAGAACUAGAAGUUUCCUGCUGGCCAACUCUAGUCAUACUUGGACCUCGUGGAAACAUGUUGUUUUCUUUGAUUGGAGAGGGACACAAAGACAACAGAGGAUUGAGCAUCA
# B15: chr8:23572142:23572248:+|3pUTR|ENSG00000147454|unk|total|mutant (ssRNA)
# RNA: GGGAGUUCUACAGUCCGACGAUCCCUCCCUGGGCAGAAUGCCGCUUUUCUGCUUCACUGUGGCAGCCUCCUCCCUGGAUCCUCCGAUCCCAGAGGAGGGAAGAAAAUUUGCAGUGACUGAAAACAGUAAAAAAAAAAAAAAAACAACAGAGGAUUGAGCAUCA
# B16: chr2:159967538:159967678:-|CDS|ENSG00000153246|control|control|control (ssRNA)
# RNA: GGGAGUUCUACAGUCCGACGAUCUAGUGAAGAGUGUUCAGUUUCUAUGCCUAGUAUCUGUAAGCGAAAAAAGGUUUGGCUCAUAGAGAAAAAGAAAGAUACACCAAAACAACAUGGAACGUGUCCCAAAGGAUGGCUAUAUUUCAACAGAGGAUUGAGCAUCA
# B17: chr19:19111484:19111585:+|3pUTR|ENSG00000181035|msi1|FALSE|unique (ssRNA)
# RNA: GGGAGUUCUACAGUCCGACGAUCAGCCUCAUGUCUAUCCUAGACCCUGCAAGCAGCUGGGUCCCCAAGAGUGCAUCUCCCCCUAGAGUUGCCUGCCCAUGCCCACCUGCUUUGUAACCUUCCCAGGAGAUUCAUGCUUGCUCUCAACAGAGGAUUGAGCAUCA
# B18: chr13:66631209:66631411:-|CDS|ENSG00000184226|control|control|control (ssRNA)
# RNA: GGGAGUUCUACAGUCCGACGAUCCCUGAUGGCUCCCAGGAAAGCUGCAGUGACAGUGGUCUAGGAGACCAUGAGCCGGUGGGUAGUGGAACCCUGAUCUCACACCCUCUUCCUCUGGUUCAGCCACAGGACGAAUUCUAUGACCAACAGAGGAUUGAGCAUCA
# B19: chr6:149379354:149379455:+|CDS|ENSG00000055208|msi1|total|mutant (ssRNA)
# RNA: GGGAGUUCUACAGUCCGACGAUCAGGGGUGGUGUCCCCUACCUUUGAACUUACAAAUCUUCUUAAUCAUCCUGAUCAUUAUGCCGAAACCGAGAAUAUUCAGCACCUCACGGACCCUACAUCCGCACAUGUGGACCGAAUAAGCAACAGAGGAUUGAGCAUCA
# B20: ENSG00000130560:stop:overlap|stop_codon|ENSG00000130560|stop_codon|NA|stop_codon (ssRNA)
# RNA: GGGAGUUCUACAGUCCGACGAUCCAGAAACGGGGCCUGUCAUGCUGCAGAUCUCUAGAAUCUUCCAGACACUAAAUCGCACGUAGGUGGCGUUGUUCCACUCGGCUAUCAGGCCACAGCAGCCCCCUGGUGCGGCCCGAGACCCAACAGAGGAUUGAGCAUCA
# B21: ENSG00000148248:stop:overlap|stop_codon|ENSG00000148248|stop_codon|NA|stop_codon (ssRNA)
# RNA: GGGAGUUCUACAGUCCGACGAUCUGAUGUUCAUGACCCUCCUUCACUUUGACGCCAGCUUCUUUUCUCAGCCGUCUCAGCAGUAGCUACAUCAGCCUGAUGGAUAGAGACUUCAUGACGUGCAGCAGCUGGAACUUUUGUUUACAACAGAGGAUUGAGCAUCA
# B22: chr17:49707729:49707944:-|CDS|ENSG00000121073|control|control|control (ssRNA)
# RNA: GGGAGUUCUACAGUCCGACGAUCCUGCCGGUGCCGGUUGUGAGCGGGUCUCCAGUCGGCUCCUCUGGGCGUCUCAUGGCCUCUAGCAGCUCCCUGGUGCCCGACCGGCUGCGCCUGCCGCUCUGCUUCCUGGGUGUCUUUGUCCAACAGAGGAUUGAGCAUCA
# Biological target: T1, UNK ZnF1-6 (called full-length)
# Test: nsRBNS (natural sequence RNA bind-n-seq); RBNS binding buffer (assumed for nsRBNS): 25 mM Tris pH 7.5, 150 mM KCl, 3 mM MgCl2, 0.01% Triton X-100, 500 ug/ml BSA, 20 U/ml SUPERase-In, 4 C; UNK is unkempt and MSI1 is Musashi-1; names of the RNAs are library labels; protein concentration not given here; high values mean tight binding
row,Binder,binding signal [enrichment R]
1,B1,0.871
2,B2,0.66
3,B3,0.754
4,B4,1
5,B5,0.507
6,B6,1.75
7,B7,0.535
8,B8,0.815
9,B9,0.873
10,B10,0.196
11,B11,1.03
12,B12,0.602
13,B13,0.648
14,B14,0.602
15,B15,0.647
16,B16,0.378
17,B17,0.762
18,B18,0.557
19,B19,0.569
20,B20,0.382
21,B21,0.871
22,B22,0.689
